# This is one part of the list.
# B1: Gal 7 (Canis lupus) (protein)
# chain: MAGSSNVPHKTSLPEGIRVGTVMRIRGVVPNKAGRFYVNLLCGEAPGSEAALHFNPRLDESTVVFNTLEQGAWGREERGTGIPFQRGQPFDVLLIATDEGFKAVVGDSEYHHFRYRIPPARVRLLEVGGDLQLESVSVF
# Columns and labels:
# Assay in all cases: glycan array binding signal (z-score within array); higher = stronger binding
# Conditions in all cases: glycan notation: IUPAC condensed, linker removed
# [1] = target: Neu5Ac(a2-3)Gal(b1-4)[Fuc(a1-3)]GlcNAc(b1-3)GalNAc
# Outline: (§1)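 From the Consortium for Functional Glycomics database, 3228 arrays were curated, keeping only those whose protein sequence was available. Binding is given as a within-array Z-score averaged across arrays sharing a protein sequence and across linkers. Negative Z-scores can be read as non-binding.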
# [2] = target: Neu5Ac(a2-3)Gal(b1-4)[Fuc(a1-3)]GlcNAc(b1-6)[Gal(b1-3)]GalNAc
# Outline: as §1
# [3] = target: Neu5Ac(a2-3)Gal(b1-4)[Fuc(a1-3)]GlcNAc(b1-6)[Neu5Ac(a2-3)Gal(b1-3)]GalNAc
# Outline: as §1
# [4] = target: Neu5Ac(a2-3)Gal(b1-4)[Fuc(a1-3)]GlcNAc6S
# Outline: as §1
# [5] = target: Neu5Ac(a2-3)Gal6S(b1-4)GlcNAc
# Outline: as §1
# [6] = target: Neu5Ac(a2-3)Gal6S(b1-4)[Fuc(a1-3)]GlcNAc
# Outline: as §1
# Neu5Ac(a2-3)GalNAc = target: Neu5Ac(a2-3)GalNAc
# Outline: as §1
# [7] = target: Neu5Ac(a2-3)GalNAc(b1-4)GlcNAc
# Outline: as §1
# [8] = target: Neu5Ac(a2-3)[GalNAc(b1-4)]Gal(b1-4)Glc
# Outline: as §1
# [9] = target: Neu5Ac(a2-3)[GalNAc(b1-4)]Gal(b1-4)GlcNAc
# Outline: as §1
# [10] = target: Neu5Ac(a2-3)[GalNAc(b1-4)]Gal(b1-4)GlcNAc(b1-3)GalNAc
# Outline: as §1
# [11] = target: Neu5Ac(a2-3)[Neu5Ac(a2-6)]GalNAc
# Outline: as §1
# Neu5Ac(a2-6)Gal = target: Neu5Ac(a2-6)Gal
# Outline: as §1
# [12] = target: Neu5Ac(a2-6)Gal(b1-3)GlcNAc(b1-3)[Gal(b1-4)GlcNAc(b1-6)]Gal(b1-4)Glc
# Outline: as §1
# Neu5Ac(a2-6)Gal(b1-4)Glc = target: Neu5Ac(a2-6)Gal(b1-4)Glc
# Outline: as §1
# [13] = target: Neu5Ac(a2-6)Gal(b1-4)GlcNAc
# Outline: as §1
# [14] = target: Neu5Ac(a2-6)Gal(b1-4)GlcNAc(b1-2)Man(a1-3)Man(b1-4)GlcNAc(b1-4)GlcNAc
# Outline: as §1
# [15] = target: Neu5Ac(a2-6)Gal(b1-4)GlcNAc(b1-2)Man(a1-3)[Gal(b1-4)GlcNAc(b1-2)Man(a1-6)]Man(b1-4)GlcNAc(b1-4)GlcNAc
# Outline: as §1
# [16] = target: Neu5Ac(a2-6)Gal(b1-4)GlcNAc(b1-2)Man(a1-3)[GlcNAc(b1-2)Man(a1-6)]Man(b1-4)GlcNAc(b1-4)GlcNAc
# Outline: as §1
# [17] = target: Neu5Ac(a2-6)Gal(b1-4)GlcNAc(b1-2)Man(a1-3)[GlcNAc(b1-2)Man(b1-4)GlcNAc(b1-2)Man(a1-6)]Man(b1-4)GlcNAc(b1-4)GlcNAc
# Outline: as §1
# [18] = target: Neu5Ac(a2-6)Gal(b1-4)GlcNAc(b1-2)Man(a1-3)[Man(a1-6)]Man(b1-4)GlcNAc(b1-4)GlcNAc
# Outline: as §1
# [19] = target: Neu5Ac(a2-6)Gal(b1-4)GlcNAc(b1-2)Man(a1-3)[Neu5Ac(a2-6)Gal(b1-4)GlcNAc(b1-2)Man(a1-6)]Man(b1-4)GlcNAc(b1-4)GlcNAc
# Outline: as §1
# [20] = target: Neu5Ac(a2-6)Gal(b1-4)GlcNAc(b1-2)Man(a1-6)Man(b1-4)GlcNAc(b1-4)GlcNAc
# Outline: as §1
# [21] = target: Neu5Ac(a2-6)Gal(b1-4)GlcNAc(b1-2)Man(a1-6)[Gal(b1-4)GlcNAc(b1-2)Man(a1-3)]Man(b1-4)GlcNAc(b1-4)GlcNAc
# Outline: as §1
# [22] = target: Neu5Ac(a2-6)Gal(b1-4)GlcNAc(b1-2)Man(a1-6)[GlcNAc(b1-2)Man(a1-3)]Man(b1-4)GlcNAc(b1-4)GlcNAc
# Outline: as §1
# [23] = target: Neu5Ac(a2-6)Gal(b1-4)GlcNAc(b1-2)Man(a1-6)[Man(a1-3)]Man(b1-4)GlcNAc(b1-4)GlcNAc
# Outline: as §1
# [24] = target: Neu5Ac(a2-6)Gal(b1-4)GlcNAc(b1-3)Gal(b1-3)GlcNAc
# Outline: as §1
# [25] = target: Neu5Ac(a2-6)Gal(b1-4)GlcNAc(b1-3)Gal(b1-4)GlcNAc
# Outline: as §1
# [26] = target: Neu5Ac(a2-6)Gal(b1-4)GlcNAc(b1-3)Gal(b1-4)GlcNAc(b1-3)Gal(b1-4)GlcNAc
# Outline: as §1
# [27] = target: Neu5Ac(a2-6)Gal(b1-4)GlcNAc(b1-3)Gal(b1-4)[Fuc(a1-3)]GlcNAc(b1-3)Gal(b1-4)[Fuc(a1-3)]GlcNAc
# Outline: as §1
# [28] = target: Neu5Ac(a2-6)Gal(b1-4)GlcNAc(b1-3)GalNAc
# Outline: as §1
# [29] = target: Neu5Ac(a2-6)Gal(b1-4)GlcNAc6S
# Outline: as §1
# Neu5Ac(a2-6)GalNAc = target: Neu5Ac(a2-6)GalNAc
# Outline: as §1
# [30] = target: Neu5Ac(a2-6)GalNAc(b1-4)GlcNAc
# Outline: as §1
# [31] = target: Neu5Ac(a2-6)GlcNAc(b1-4)GlcNAc
# Outline: as §1
# [32] = target: Neu5Ac(a2-6)GlcNAc(b1-4)GlcNAc(b1-4)GlcNAc
# Outline: as §1
# Neu5Ac(a2-8)Neu5Ac = target: Neu5Ac(a2-8)Neu5Ac
# Outline: as §1
# [33] = target: Neu5Ac(a2-8)Neu5Ac(a2-3)Gal(b1-4)Glc
# Outline: as §1
# [34] = target: Neu5Ac(a2-8)Neu5Ac(a2-3)[Gal(b1-3)GalNAc(b1-4)]Gal(b1-4)Glc
# Outline: as §1
# [35] = target: Neu5Ac(a2-8)Neu5Ac(a2-3)[GalNAc(b1-4)]Gal(b1-4)Glc
# Outline: as §1
# [36] = target: Neu5Ac(a2-8)Neu5Ac(a2-8)Neu5Ac
# Outline: as §1
# [37] = target: Neu5Ac(a2-8)Neu5Ac(a2-8)Neu5Ac(a2-3)Gal(b1-4)Glc
# Outline: as §1
# [38] = target: Neu5Ac(a2-8)Neu5Ac(a2-8)Neu5Ac(a2-3)[GalNAc(b1-4)]Gal(b1-4)Glc
# Outline: as §1
# [39] = target: Neu5Ac(a2-8)Neu5Ac(a2-8)Neu5Ac(a2-8)Neu5Ac(a2-3)[GalNAc(b1-4)]Gal(b1-4)Glc
# Outline: as §1
# [40] = target: Neu5Ac(b2-6)Gal(b1-4)GlcNAc
# Outline: as §1
# Neu5Ac(b2-6)GalNAc = target: Neu5Ac(b2-6)GalNAc
# Outline: as §1
# [41] = target: Neu5Ac9Ac(a2-3)Gal(b1-3)GlcNAc
# Outline: as §1
# [42] = target: Neu5Ac9Ac(a2-3)Gal(b1-4)GlcNAc
# Outline: as §1
# [43] = target: Neu5Ac9Ac(a2-6)Gal(b1-4)GlcNAc
# Outline: as §1
# [44] = target: Neu5Gc(a2-3)Gal(b1-3)GlcNAc
# Outline: as §1
# [45] = target: Neu5Gc(a2-3)Gal(b1-3)[Fuc(a1-4)]GlcNAc
# Outline: as §1
# Neu5Gc(a2-3)Gal(b1-4)Glc = target: Neu5Gc(a2-3)Gal(b1-4)Glc
# Outline: as §1
# [46] = target: Neu5Gc(a2-3)Gal(b1-4)GlcNAc
# Outline: as §1
# [47] = target: Neu5Gc(a2-3)Gal(b1-4)[Fuc(a1-3)]GlcNAc
# Outline: as §1
# [48] = target: Neu5Gc(a2-6)Gal(b1-4)GlcNAc
# Outline: as §1
# Neu5Gc(a2-6)GalNAc = target: Neu5Gc(a2-6)GalNAc
# Outline: as §1
# [49] = target: Neu5Gc(b2-6)Gal(b1-4)GlcNAc
# Outline: as §1
binder,measurement,setting,value
B1,glycan array binding signal (z-score),[1],-0.14
same,glycan array binding signal (z-score),[2],-0.202
same,glycan array binding signal (z-score),[3],-0.193
same,glycan array binding signal (z-score),[4],-0.206
same,glycan array binding signal (z-score),[5],-0.198
same,glycan array binding signal (z-score),[6],-0.215
same,glycan array binding signal (z-score),Neu5Ac(a2-3)GalNAc,-0.213
same,glycan array binding signal (z-score),[7],-0.213
same,glycan array binding signal (z-score),[8],-0.207
same,glycan array binding signal (z-score),[9],-0.212
same,glycan array binding signal (z-score),[10],-0.198
same,glycan array binding signal (z-score),[11],-0.2
same,glycan array binding signal (z-score),Neu5Ac(a2-6)Gal,-0.201
same,glycan array binding signal (z-score),[12],-0.18
same,glycan array binding signal (z-score),Neu5Ac(a2-6)Gal(b1-4)Glc,-0.208
same,glycan array binding signal (z-score),[13],-0.212
same,glycan array binding signal (z-score),[14],-0.208
same,glycan array binding signal (z-score),[15],-0.212
same,glycan array binding signal (z-score),[16],-0.205
same,glycan array binding signal (z-score),[17],-0.17
same,glycan array binding signal (z-score),[18],-0.217
same,glycan array binding signal (z-score),[19],-0.203
same,glycan array binding signal (z-score),[20],-0.202
same,glycan array binding signal (z-score),[21],-0.212
same,glycan array binding signal (z-score),[22],-0.211
same,glycan array binding signal (z-score),[23],-0.212
same,glycan array binding signal (z-score),[24],3.85
same,glycan array binding signal (z-score),[25],1.54
same,glycan array binding signal (z-score),[26],3.5
same,glycan array binding signal (z-score),[27],-0.214
same,glycan array binding signal (z-score),[28],-0.215
same,glycan array binding signal (z-score),[29],-0.217
same,glycan array binding signal (z-score),Neu5Ac(a2-6)GalNAc,-0.217
same,glycan array binding signal (z-score),[30],-0.208
same,glycan array binding signal (z-score),[31],-0.208
same,glycan array binding signal (z-score),[32],-0.216
same,glycan array binding signal (z-score),Neu5Ac(a2-8)Neu5Ac,-0.208
same,glycan array binding signal (z-score),[33],-0.207
same,glycan array binding signal (z-score),[34],-0.186
same,glycan array binding signal (z-score),[35],-0.207
same,glycan array binding signal (z-score),[36],-0.211
same,glycan array binding signal (z-score),[37],-0.198
same,glycan array binding signal (z-score),[38],-0.217
same,glycan array binding signal (z-score),[39],-0.198
same,glycan array binding signal (z-score),[40],-0.218
same,glycan array binding signal (z-score),Neu5Ac(b2-6)GalNAc,-0.208
same,glycan array binding signal (z-score),[41],-0.203
same,glycan array binding signal (z-score),[42],-0.218
same,glycan array binding signal (z-score),[43],-0.216
same,glycan array binding signal (z-score),[44],-0.218
same,glycan array binding signal (z-score),[45],-0.203
same,glycan array binding signal (z-score),Neu5Gc(a2-3)Gal(b1-4)Glc,-0.194
same,glycan array binding signal (z-score),[46],-0.217
same,glycan array binding signal (z-score),[47],-0.204
same,glycan array binding signal (z-score),[48],-0.204
same,glycan array binding signal (z-score),Neu5Gc(a2-6)GalNAc,-0.211
same,glycan array binding signal (z-score),[49],-0.205

# Source: the supplement of paper PMC8728848
